# Assay results: the supplement of paper PMC10037445
# Several values for one entry are separate records, joined by “and”; a condition that tells them apart may be missing. Equal entries are not always repeated. Over roughly 2,900 compounds, “NF-kB SEAP reporter activity, fold change vs agonist alone” has its median near 0.99; the highest 2% begin near 2.6. This is one part of the list.
# Tests used:
# RAW-Dual [1] = test: NF-kB SEAP reporter activity, fold change vs agonist alone; higher = enhanced NF-kB activity
# Summary of the method: (§1)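 Library stock was pin-tooled at 50 nL into 384-well plates of RAW-Dual macrophages (50,000 cells/well, DMEM), followed 1 h later by a PRR agonist, and the cells were kept at 37 °C, 5% CO2. Supernatant collected after 20 hours was read for IRF by QuantiLuc luminescence and for NF-κB by QuantiBlue absorbance at 620 nm. Reporter activity is fold change over agonist-alone wells, and a well counted as cytotoxic when its IncuCyte confluency was below 70% of agonist controls in both mask sets.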
# RAW-Dual [2] = test: NF-kB SEAP reporter activity, fold change vs agonist alone; cytotoxicity flag (confluency mask): not cytotoxic; higher = enhanced NF-kB activity
# Summary of the method: as §1
# RAW-Dual [3] = test: NF-kB SEAP reporter activity, fold change vs agonist alone; cytotoxicity flag (confluency mask): cytotoxic (confluency <70% of control); higher = enhanced NF-kB activity
# Summary of the method: as §1
# [4] = library stock concentration (final ~1000-fold dilution): 10 mM, cytotoxicity flag (confluency mask): not cytotoxic, agonist: Imiquimod (TLR7) […]
# [5] = library stock concentration (final ~1000-fold dilution): 10 mM, cytotoxicity flag (confluency mask): not cytotoxic, agonist: MPLA (TLR4) […]
# [6] = agonist: ODN 1826 (TLR9) 0.5 ug/mL
# [7] = agonist: Pam2CSK4 (TLR2/6) 0.1 ug/mL
# [8] = agonist: Pam3CSK4 (TLR2/1) 0.1 ug/mL
# [9] = library stock concentration (final ~1000-fold dilution): 10 mM, cytotoxicity flag (confluency mask): cytotoxic (confluency <70% of control), agonist: Imiquimod (TLR7) […]
# [10] = library stock concentration (final ~1000-fold dilution): 10 mM, cytotoxicity flag (confluency mask): cytotoxic (confluency <70% of control), agonist: MPLA (TLR4) […]
structure (smiles),measurement,setting,value
CN(C(=O)CCCOc1ccc2[nH]c(=O)ccc2c1)C1CCCCC1,NF-kB SEAP reporter activity,RAW-Dual [1]; [4],1.02
same,NF-kB SEAP reporter activity,RAW-Dual [1]; [5],1.19
CN(C(=O)CCCOc1ccc2[nH]c(=O)ccc2c1)C1CCCCC1 (library stock concentration (final ~1000-fold dilution): 10 mM),NF-kB SEAP reporter activity,RAW-Dual [2]; agonist: LPS (TLR4) 0.1 ug/mL,1.96
same,NF-kB SEAP reporter activity,RAW-Dual [2]; [6],1.05
same,NF-kB SEAP reporter activity,RAW-Dual [2]; [7],0.987
same,NF-kB SEAP reporter activity,RAW-Dual [2]; [8],1.28
NNC(=O)c1ccncc1,NF-kB SEAP reporter activity,RAW-Dual [1]; [4],0.948
same,NF-kB SEAP reporter activity,RAW-Dual [1]; [5],1.05
NNC(=O)c1ccncc1 (library stock concentration (final ~1000-fold dilution): 10 mM),NF-kB SEAP reporter activity,RAW-Dual [2]; agonist: LPS (TLR4) 0.1 ug/mL,1.22
same,NF-kB SEAP reporter activity,RAW-Dual [2]; [6],1.05
same,NF-kB SEAP reporter activity,RAW-Dual [2]; [7],1.09
same,NF-kB SEAP reporter activity,RAW-Dual [2]; [8],1.05
Nc1cc(C(F)(F)F)c(-c2nc(N3CCOCC3)nc(N3CCOCC3)n2)cn1 (library stock concentration (final ~1000-fold dilution): 10 mM),NF-kB SEAP reporter activity,RAW-Dual [2]; agonist: LPS (TLR4) 0.1 ug/mL,0.943
same,NF-kB SEAP reporter activity,RAW-Dual [2]; [6],0.711
same,NF-kB SEAP reporter activity,RAW-Dual [2]; [7],0.402
same,NF-kB SEAP reporter activity,RAW-Dual [2]; [8],0.503
Nc1cc(C(F)(F)F)c(-c2nc(N3CCOCC3)nc(N3CCOCC3)n2)cn1,NF-kB SEAP reporter activity,RAW-Dual [1]; [4],0.783
same,NF-kB SEAP reporter activity,RAW-Dual [1]; [5],1.11
CCN1CCCC1CNC(=O)c1cc(S(N)(=O)=O)ccc1OC (stereo unspecified) (library stock concentration (final ~1000-fold dilution): 10 mM),NF-kB SEAP reporter activity,RAW-Dual [2]; agonist: LPS (TLR4) 0.1 ug/mL,1.32 and 0.858
same,NF-kB SEAP reporter activity,RAW-Dual [2]; [6],0.962 and 0.982
same,NF-kB SEAP reporter activity,RAW-Dual [2]; [7],1.2 and 0.846
same,NF-kB SEAP reporter activity,RAW-Dual [2]; [8],1.12 and 0.924
CCN1CCCC1CNC(=O)c1cc(S(N)(=O)=O)ccc1OC (stereo unspecified),NF-kB SEAP reporter activity,RAW-Dual [1]; [4],1.01
Cl.Nc1c2c(nc3ccccc13)CCCC2 (library stock concentration (final ~1000-fold dilution): 10 mM),NF-kB SEAP reporter activity,RAW-Dual [2]; agonist: LPS (TLR4) 0.1 ug/mL,0.972
same,NF-kB SEAP reporter activity,RAW-Dual [2]; [6],0.271
same,NF-kB SEAP reporter activity,RAW-Dual [2]; [7],1
same,NF-kB SEAP reporter activity,RAW-Dual [2]; [8],0.924
Cl.Nc1c2c(nc3ccccc13)CCCC2,NF-kB SEAP reporter activity,RAW-Dual [1]; [4],0.964
same,NF-kB SEAP reporter activity,RAW-Dual [1]; [5],1.03
CN1CCN(c2ccc3nc(-c4c(N)c5c(F)cccc5[nH]c4=O)[nH]c3c2)CC1,NF-kB SEAP reporter activity,RAW-Dual [1]; [4],0.963
same,NF-kB SEAP reporter activity,RAW-Dual [1]; [5],0.962
CN1CCN(c2ccc3nc(-c4c(N)c5c(F)cccc5[nH]c4=O)[nH]c3c2)CC1 (library stock concentration (final ~1000-fold dilution): 10 mM),NF-kB SEAP reporter activity,RAW-Dual [2]; agonist: LPS (TLR4) 0.1 ug/mL,0.554
same,NF-kB SEAP reporter activity,RAW-Dual [2]; [6],0.231
same,NF-kB SEAP reporter activity,RAW-Dual [2]; [7],0.388
same,NF-kB SEAP reporter activity,RAW-Dual [2]; [8],0.449
O=C(Oc1coc(CSc2ncccn2)cc1=O)c1ccc([N+](=O)[O-])cc1,NF-kB SEAP reporter activity,RAW-Dual [1]; [4],0.717
same,NF-kB SEAP reporter activity,RAW-Dual [1]; [5],1.01
O=C(Oc1coc(CSc2ncccn2)cc1=O)c1ccc([N+](=O)[O-])cc1 (library stock concentration (final ~1000-fold dilution): 10 mM),NF-kB SEAP reporter activity,RAW-Dual [2]; agonist: LPS (TLR4) 0.1 ug/mL,1.26
same,NF-kB SEAP reporter activity,RAW-Dual [2]; [6],0.944
same,NF-kB SEAP reporter activity,RAW-Dual [2]; [7],1.19
same,NF-kB SEAP reporter activity,RAW-Dual [2]; [8],0.981
COc1ccccc1Oc1c(NS(=O)(=O)c2ccc(C(C)(C)C)cc2)nc(-c2ncccn2)nc1OCCO.O (library stock concentration (final ~1000-fold dilution): 10 mM),NF-kB SEAP reporter activity,RAW-Dual [2]; agonist: LPS (TLR4) 0.1 ug/mL,1.15
same,NF-kB SEAP reporter activity,RAW-Dual [2]; [6],1.01
same,NF-kB SEAP reporter activity,RAW-Dual [2]; [7],1.06
same,NF-kB SEAP reporter activity,RAW-Dual [2]; [8],1.1
COc1ccccc1Oc1c(NS(=O)(=O)c2ccc(C(C)(C)C)cc2)nc(-c2ncccn2)nc1OCCO.O,NF-kB SEAP reporter activity,RAW-Dual [1]; [4],1.02
same,NF-kB SEAP reporter activity,RAW-Dual [1]; [5],1.1
CN(Cc1cnc2nc(N)nc(N)c2n1)c1ccc(C(=O)NC(CCC(=O)O)C(=O)O)cc1 (stereo unspecified),NF-kB SEAP reporter activity,"RAW-Dual [1]; library stock concentration (final ~1000-fold dilution): 10 mM water, cytotoxicity flag (confluency mask): not cytotoxic, agonist: MPLA (TLR4) […]",1.04
same,NF-kB SEAP reporter activity,RAW-Dual [1]; [9],0.759
same,NF-kB SEAP reporter activity,RAW-Dual [1]; [10],0.906
CN(Cc1cnc2nc(N)nc(N)c2n1)c1ccc(C(=O)NC(CCC(=O)O)C(=O)O)cc1 (stereo unspecified) (library stock concentration (final ~1000-fold dilution): 10 mM water),NF-kB SEAP reporter activity,RAW-Dual [2]; agonist: LPS (TLR4) 0.1 ug/mL,1.52
same,NF-kB SEAP reporter activity,RAW-Dual [2]; [6],0.931
same,NF-kB SEAP reporter activity,RAW-Dual [2]; [7],0.514
same,NF-kB SEAP reporter activity,RAW-Dual [2]; [8],0.726
CN(Cc1cnc2nc(N)nc(N)c2n1)c1ccc(C(=O)NC(CCC(=O)O)C(=O)O)cc1 (stereo unspecified) (library stock concentration (final ~1000-fold dilution): 10 mM),NF-kB SEAP reporter activity,RAW-Dual [3]; agonist: LPS (TLR4) 0.1 ug/mL,1.23
same,NF-kB SEAP reporter activity,RAW-Dual [3]; [6],0.724
same,NF-kB SEAP reporter activity,RAW-Dual [3]; [7],0.558
same,NF-kB SEAP reporter activity,RAW-Dual [3]; [8],0.342
CCOC(=O)c1c2c3c(cccc3[nH]c1=O)C(=O)c1ccccc1-2 (library stock concentration (final ~1000-fold dilution): 10 mM),NF-kB SEAP reporter activity,RAW-Dual [2]; agonist: LPS (TLR4) 0.1 ug/mL,1.1
same,NF-kB SEAP reporter activity,RAW-Dual [2]; [6],0.924
same,NF-kB SEAP reporter activity,RAW-Dual [2]; [7],0.817
same,NF-kB SEAP reporter activity,RAW-Dual [2]; [8],0.957
CCOC(=O)c1c2c3c(cccc3[nH]c1=O)C(=O)c1ccccc1-2,NF-kB SEAP reporter activity,RAW-Dual [1]; [4],0.906
same,NF-kB SEAP reporter activity,RAW-Dual [1]; [5],1.09
CN(Cc1cc(Br)cc(Br)c1N)C1CCCCC1,NF-kB SEAP reporter activity,RAW-Dual [1]; [9],1.15
same,NF-kB SEAP reporter activity,RAW-Dual [1]; [10],1.43
CN(Cc1cc(Br)cc(Br)c1N)C1CCCCC1 (library stock concentration (final ~1000-fold dilution): 10 mM),NF-kB SEAP reporter activity,RAW-Dual [3]; agonist: LPS (TLR4) 0.1 ug/mL,1.04
same,NF-kB SEAP reporter activity,RAW-Dual [3]; [6],0.386
same,NF-kB SEAP reporter activity,RAW-Dual [3]; [7],0.257
same,NF-kB SEAP reporter activity,RAW-Dual [3]; [8],0.423
Nc1nc(N)c2nc(-c3cccc(O)c3)c(-c3cccc(O)c3)nc2n1,NF-kB SEAP reporter activity,RAW-Dual [1]; [4],0.901
same,NF-kB SEAP reporter activity,RAW-Dual [1]; [5],0.951
Nc1nc(N)c2nc(-c3cccc(O)c3)c(-c3cccc(O)c3)nc2n1 (library stock concentration (final ~1000-fold dilution): 10 mM),NF-kB SEAP reporter activity,RAW-Dual [2]; agonist: LPS (TLR4) 0.1 ug/mL,1.23
same,NF-kB SEAP reporter activity,RAW-Dual [2]; [6],1.03
same,NF-kB SEAP reporter activity,RAW-Dual [2]; [7],1.02
same,NF-kB SEAP reporter activity,RAW-Dual [2]; [8],1.08
